The campaign covered roughly 310,000 compounds. About 14,000 (4.5%) showed an effect of 50% or more. The effect is printed as a negative number. This is one part of the list.
Molecular target: human ether-à-go-go-related gene (hERG) potassium channel (human, UniProt Q12809)
Experiment: primary screen, population patch clamp on CHO cells stably expressing hERG
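Further: peak tail current of the secondary pulse compared with the same well before compound.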

Sequence of human ether-à-go-go-related gene (hERG) potassium channel (Q12809 whole entry, looked up): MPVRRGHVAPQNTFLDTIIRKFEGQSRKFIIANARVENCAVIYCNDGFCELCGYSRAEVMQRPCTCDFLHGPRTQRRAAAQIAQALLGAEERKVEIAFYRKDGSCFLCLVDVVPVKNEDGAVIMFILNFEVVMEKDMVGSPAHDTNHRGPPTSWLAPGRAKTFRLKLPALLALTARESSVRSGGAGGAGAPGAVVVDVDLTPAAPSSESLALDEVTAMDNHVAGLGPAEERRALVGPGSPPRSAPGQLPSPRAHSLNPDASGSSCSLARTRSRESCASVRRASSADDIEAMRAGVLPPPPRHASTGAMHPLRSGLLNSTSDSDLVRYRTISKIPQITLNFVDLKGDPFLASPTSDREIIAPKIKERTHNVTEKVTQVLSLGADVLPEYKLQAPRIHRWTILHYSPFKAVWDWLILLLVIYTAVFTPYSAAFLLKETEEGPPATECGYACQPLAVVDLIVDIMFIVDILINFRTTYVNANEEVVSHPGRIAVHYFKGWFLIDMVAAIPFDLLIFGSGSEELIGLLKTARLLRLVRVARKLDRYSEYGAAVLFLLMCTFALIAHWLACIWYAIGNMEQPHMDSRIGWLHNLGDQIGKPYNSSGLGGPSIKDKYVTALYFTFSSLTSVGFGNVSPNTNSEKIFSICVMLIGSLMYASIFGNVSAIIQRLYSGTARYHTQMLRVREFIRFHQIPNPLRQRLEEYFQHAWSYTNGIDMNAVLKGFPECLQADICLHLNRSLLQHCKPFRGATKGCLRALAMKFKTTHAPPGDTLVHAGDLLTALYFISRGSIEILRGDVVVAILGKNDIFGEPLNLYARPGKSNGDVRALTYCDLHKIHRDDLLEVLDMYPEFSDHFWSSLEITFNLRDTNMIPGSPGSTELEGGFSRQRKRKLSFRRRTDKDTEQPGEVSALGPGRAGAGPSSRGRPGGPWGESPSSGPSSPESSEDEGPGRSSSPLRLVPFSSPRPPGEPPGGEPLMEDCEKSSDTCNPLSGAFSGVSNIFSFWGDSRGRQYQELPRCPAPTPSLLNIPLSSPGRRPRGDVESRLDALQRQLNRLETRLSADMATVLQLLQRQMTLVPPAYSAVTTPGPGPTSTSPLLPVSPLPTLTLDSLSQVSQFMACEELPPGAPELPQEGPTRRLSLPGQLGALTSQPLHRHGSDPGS

| Structure (SMILES) | hERG current change (%, negative = inhibition) at 10uM |
| --- | --- |
| O=C(NC(=S)NC1CCCc2ccccc21)c1ccco1 (stereo not drawn) | 10.5% |
| N#CC1=C(SCc2ccccc2Cl)NC(=O)C(C(N)=O)C1 (stereo not drawn) | 7.57% |
| CCOC(=O)C1(CCCc2ccccc2)CCN(C(=O)c2cc(C)nc(C)n2)CC1 | -16.4% |
| CN(C)S(=O)(=O)c1ccc(C(=O)OCCc2ccccc2)cc1 | 15% |
| CCCCNC(=O)c1onc(CSc2ccccc2)c1C(=O)NCCCC | -5.73% |
| Cc1ccc(Oc2ncnc3sccc23)cc1 | -5.48% |
| CCOC(=O)CSc1ncnc2c1cnn2-c1ccc(C)cc1C | -19.2% |
| Cc1ccc(NC(=O)CNC(=O)c2ccc(C)s2)nc1 | -5.98% |
| Cc1ccn2c(NC3CCCC3)c(-c3ccncc3)nc2c1 | -10.2% |
| O=C(Cc1ccc(Cl)c(Cl)c1)Nc1ccc(S(=O)(=O)Nc2ncccn2)cc1 | 17.8% |
| COC(C/C=C/[C@H](O)[C@@H](C)OCc1ccccc1)OC | 17.2% |
| CC(=O)Nc1ccc(-c2csc(NC(=O)C3CSC4(C)CCC(=O)N34)n2)cc1 (stereo not drawn) | 9.04% |
| CN(C)c1ccc(S(=O)(=O)N2CCCCC2)cc1NC(=O)CN1C(=O)NC(C)(c2ccccc2)C1=O (stereo not drawn) | -3.86% |
| Cc1ccc(C(=O)n2c(-c3ccccc3)cnc2SCC(=O)Nc2ccccc2)cc1 | 15.6% |
| O=c1[nH]c(CN2CCc3ccccc3C2)nc2ccccc12 | 5.47% |
| Cc1ccccc1N=C1NC(=O)/C(=C/c2cccn2C)S1 | 7.25% |
| CC(C)n1ncc2c(C(=O)N3CCN(Cc4ccc(Br)s4)CC3)cc(C3CC3)nc21 | -4.36% |
| COc1ccccc1NC(=S)NC(=O)c1ccc(Cn2cc(Br)cn2)cc1 | 1.12% |
| O=C(Cc1nc2ccccc2[nH]c1=O)c1ccc(Cl)cc1 | 7.6% |
| CC1(C)Cc2c(c(N3CCOCC3)nc3sc(C(=O)Nc4ccc(Cl)cc4)c(N)c23)CO1 | 12% |
| O=C(Nc1cccc(-c2cccc(Cl)c2)c1)C1CCN(Cc2ccc(CO)o2)CC1 | -68% |
| Clc1cccc(N2CCN(Cc3nnc(-c4ccccc4)o3)CC2)c1 | -25.5% |
| COc1cc(OC)c(OC)cc1CN1CCCC(C(=O)c2ccc3c(c2)OCO3)C1 (stereo not drawn) | -67.1% |

| Structure (SMILES) | hERG current change (%, negative = inhibition) at 10uM |
| --- | --- |
| CSc1cccc(CN2CCC(Oc3ccc(C(=O)N4CCCCC4)cc3)CC2)c1 | -25.2% |
| CCn1c(N)c(Br)c(=O)[nH]c1=O | 25% |
| COc1cccc(COc2cc3ccccc3nc2C)c1 | 7.99% |
| CC/C(=N\NC(=O)c1ccc(-c2ccccc2)cc1)C12CC3CC(CC(C3)C1)C2 | 0.121% |
| O=C(NCCc1ccccc1)c1ccc2c(c1)S(=O)(=O)c1ccccc1C2=O | -2.55% |
| O=C(CSc1nc2ccccc2[nH]1)Nc1cccc(S(=O)(=O)N2CCOCC2)c1 | -16.9% |
| COc1ccc(CCNC(=O)c2ccc3ccccc3n2)cc1 | -5.65% |
| Cc1cc(NC(=O)CCN2CCC(C(N)=O)CC2)ccc1Br | -26.7% |
| COC(=O)[C@@]1(Cc2ccc(OC)cc2)[C@H]2c3cc(C(=O)N4CCCC4)n(CCSCCO)c3C[C@H]2CN1C(=O)c1ccccc1 | -17.6% |
| O=C(CSc1nc(-c2ccccc2F)nc2nc[nH]c12)Nc1c(Cl)cc(Cl)cc1Cl | -6.09% |
| COC(=O)C(C)N(C#N)c1nc(NC(C)C)nc(SC)n1 (stereo not drawn) | -5.75% |
| Cc1cc(C(F)(F)F)nn1Cc1n[nH]c(=S)n1-c1ccc(Cl)cc1 | 20.3% |
| CC(Sc1ccc2ccccc2c1)C(=O)NC(N)=O (stereo not drawn) | 11.7% |
| Cc1ccc2c(c1)N(CCC(=O)NCc1ccco1)C(=O)CO2 | -14% |
| CC(C)(C)NC(=O)c1cnn2c1NC(c1ccc(F)cc1)CC2C(F)(F)F (stereo not drawn) | 2.13% |
| N#C/C(=C/c1ccc(N2CCCCCC2)o1)c1ccc(F)cc1 | 13.9% |
| CC(NS(=O)(=O)c1ccc(Br)cc1)C(=O)NCc1ccco1 (stereo not drawn) | 1.98% |
| COc1ccc(NC(=O)[C@H](CCS(C)(=O)=O)N2Cc3ccccc3C2=O)c(OC)c1 | 1.71% |
| CCC(Sc1ccc2nnc(-c3ccc(OC)c(OC)c3)n2n1)C(=O)O (stereo not drawn) | -0.394% |
| O=C(CN1CC(c2ccccc2)CC1=O)OCc1ccccc1F (stereo not drawn) | -21.1% |
| COc1ccccc1N1CCN(S(=O)(=O)c2cn(C)cn2)CC1 | 17.3% |
| Cc1ccc(-n2nc(C(=O)O)cc2-c2ccccc2Cl)cc1 | 27.1% |

From PMC4336329 (PLoS ONE, 2015)
